According to PubChem BioAssay AID1963576 (National Center for Advancing Translational Sciences (NCATS), 2024):
The whole screen tested about 46,000 compounds, of which about 60 (0.1%) were called active. About 3% were inconclusive and are not listed. Calls follow the shape of the dose curve; as a rule, active = well fitted inhibition curve with a large enough effect; inconclusive = small, poorly fitted or top-dose-only effect; inactive = no such curve, though single readings can be large or run the other way. The list shows a part of the results.

test: Primary qHTS assay for Inhibitors of ovarian cancer metastasis using an organotypic tumor microenvironment (TME) model.; also: nearly all actives have a fitted effect of over 65% in size;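 as to activity change, negative = inhibition: plate controls were DMSO wells for no effect and tomatine positive control wells for full effect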; settings: SKOV3ip1-GFP adhesion/invasion on 3D omental model, fluorescence; series mostly up to 45.8 µM; activity change, negative = inhibition: at the top concentration
Summary of the method: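 qHTS, 4-pt dose (0.36-46 umol/L); SKOV3ip1-GFP, 1,200 cells/well, no FBS; primary omental fibroblast/mesothelial co-culture 48 h pre-grown; 2 h RT + 16 h 37 C; PBS wash, 4% PFA; GFP count 488/509 nm.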

Row | SMILES | outcome | activity change, negative = inhibition
1 | Cn1c2ccc(F)cc2c2nnc(SCCN3CCCCC3)nc21 | inactive | –
2 | CCOc1ccccc1N(CC)C(=O)c1cc2ccc3cccnc3c2[nH]1 | – | inactive: -1.82%
3 | CCc1ccc(S(=O)(=O)c2cnc(SCC(=O)Nc3ccc(OC)cc3OC)[nH]c2=O)cc1 | – | inactive: 3.69%
4 | Cc1ccc2nc(NC(=O)CSc3ncc(C(=O)Nc4ccccc4)c(=O)n3C)sc2c1 | – | inactive: 0.306%
5 | Cc1ccc(N2C(=O)C(CC(=O)Nc3ccccc3)N(CCC3=CCCCC3)C2=O)cc1 (stereo not drawn) | – | inactive: 0.94%
6 | O=C(NCCCN1CCN(c2cccc(Cl)c2)CC1)c1nnc(Cc2ccc(F)cc2Cl)o1 | – | inactive: -15.6%
7 | O=C(O)Cn1nc(N2CCN(c3ccccc3)CC2)ccc1=O | inactive | –
8 | Cc1sc2c(c1C)c(=O)n(Cc1ccccc1)c(=O)n2CC(=O)Nc1cccc(Cl)c1 | inactive | –
9 | CCOc1ccc(CCNC(=O)c2sc3nc4n(c(=O)c3c2C)CCCC4)cc1 | – | inactive: 9.05%
10 | O=C(O)C1=CC(c2ccc(Br)cc2)n2ncnc2N1 (stereo not drawn) | – | inactive: -17.7%
11 | Cc1nn2c(=O)cc(COC(=O)COc3ccccc3C)nc2s1 | inactive | –
12 | Cc1ccccc1C(=O)NCc1ccc2c(c1)CCN2C(=O)c1ccc(F)cc1 | – | inactive: -3.07%
13 | CC1CCC(NC(=O)CCc2cn(Cc3ccc(F)cc3)c3ccccc23)CC1 (stereo not drawn) | – | inactive: 0.982%
14 | CCOC(=O)Cn1cnc2c(cnn2-c2ccc(C)c(C)c2)c1=O | – | inactive: 1.06%
15 | CCS(=O)(=O)c1nc(S(=O)(=O)c2ccc(C)cc2)c(NCc2ccccc2Cl)s1 | – | inactive: -1.82%
16 | CCOC(=O)CSc1ncnc2c1c(-c1ccccc1)cn2-c1ccc(OC)cc1 | – | inactive: 0.336%
17 | COc1ccc(N2CC(NC(=O)c3ccc(S(=O)(=O)N4CCOCC4)cc3)CC2=O)cc1 (stereo not drawn) | inactive | –
18 | COc1cc2c(cc1OC)C(COc1ccc(C(C)C)cc1)N(C(=O)COc1ccccc1)CC2 (stereo not drawn) | – | inactive: -27.6%
19 | COc1ccccc1NC(=O)C1CCN(c2ncnc3c2nc2n3CCCCC2)CC1 | inactive | –
20 | CCOc1ccc(C(=O)c2cn(CC(=O)Nc3ccc(C)c(C)c3)c3ccc(OCC)cc3c2=O)cc1 | inactive | –
21 | COc1ccc(NC(=O)CC2C(=O)N(c3ccc(C)cc3)C(=O)N2C2CCCC2)cc1 (stereo not drawn) | – | inactive: -19.6%
22 | COc1ccc(CCNC(=O)CCCn2c(=O)c3cccn3c3ccc(F)cc32)cc1OC | – | inactive: 9.83%
23 | CCOc1ccc(Nc2nc(Nc3ccc(OCC)cc3)nc(N3CCOCC3)n2)cc1 | – | inactive: -7.51%
24 | COc1ccc(OCC(=O)N2CCN(C(=O)c3ccc(OC)cc3)CC2)cc1 | inactive | –

Row | SMILES | outcome | activity change, negative = inhibition
25 | Cc1cn2c(=O)cc(COC(=O)C(C)Oc3ccccc3)nc2s1 (stereo not drawn) | inactive | –
26 | CCc1cccc(NC(=O)c2coc(=O)c3ccccc23)c1 | – | inactive: 6.19%
27 | COC(=O)c1ccc(Cl)cc1NC(=O)N1CCC(CN2CCC(C)CC2)CC1 | – | inactive: 8.36%
28 | COc1cccc(NC(=O)c2oc3ccccc3c2NC(=O)Cc2cccc(C)c2)c1 | – | inactive: -0.396%
29 | CC(NC(=O)c1cc2ccccn2n1)c1ccccc1 (stereo not drawn) | – | inactive: -3.76%
30 | COC(=O)CN1C(=O)C(C)(C)c2cc(S(=O)(=O)Nc3ccc(C(C)C)cc3)ccc21 | – | inactive: -0.49%
31 | O=C(COc1ccc(Br)cc1)Nc1cccc2cccnc12 | – | inactive: 2.47%
32 | Cc1ccc(C)c(CN2C(=O)C(O)(c3c[nH]c4ccccc34)c3ccccc32)c1 (stereo not drawn) | inactive | –
33 | Cc1ccccc1OCC(=O)N(Cc1ccc(C(C)C)cc1)C1CCS(=O)(=O)C1 (stereo not drawn) | – | inactive: -17.5%
34 | CCc1ccc(-n2nc(CO)c(C(=O)NCCCCc3ccccc3)n2)cc1 | inactive | –
35 | O=C(NCc1ccc(Cl)cc1)c1cc(-c2ccc(F)cc2)on1 | – | inactive: 2.82%
36 | CCOc1ccc(S(=O)(=O)n2nc(C)c(S(=O)(=O)N3CCCCC3)c2C)cc1 | – | inactive: -0.766%
37 | O=C(Nc1ccc(Cl)cc1C(F)(F)F)c1cc(S(=O)(=O)N2CCOCC2)ccc1F | – | inactive: 1.47%
38 | COc1cc(CN2CCc3nc(N4CCN(c5ccccn5)CC4)ncc3C2)cc(OC)c1OC | – | inactive: 3.73%
39 | COc1ccc(C(=O)Nc2cc3c(cc2N2CCCC2)n(C)c(=O)c(=O)n3C)cc1OC | – | inactive: 6.83%
40 | CCCC(=O)n1nc(-c2cccnc2)nc1NCc1ccc(OC)cc1 | – | inactive: 1.88%
41 | COC(=O)c1ccccc1NS(=O)(=O)c1ccc2c(c1)CCCN2C(C)=O | – | inactive: 4.08%
42 | CC(=O)c1cc(-c2ccccc2)n(CCC(=O)NC(C)c2ccccc2)c1C (stereo not drawn) | – | inactive: 9.29%
43 | Cc1nn(CCCC(=O)NCc2ccccc2)c(=O)c2cc3sccc3n12 | inactive | –
44 | CC(C)(C)OC(=O)N1CCC(c2c(C(=O)NCc3ccco3)cnn2-c2ccccc2Cl)CC1 | – | inactive: 9.4%
45 | COc1ccccc1NC(=O)Cn1nc(-c2ccc(C)cc2)c2c(c1=O)CCCC2 | inactive | –
46 | O=C(Nc1ccc(Br)cc1)C(Cc1ccccc1)NS(=O)(=O)c1cccc2nsnc12 (stereo not drawn) | – | inactive: 9.01%
47 | CCOc1ccc(OCC)c(NC(=O)C(NS(=O)(=O)c2cccs2)c2ccccc2)c1 (stereo not drawn) | inactive | –
48 | Fc1ccc(-n2ncc3c(NCCC4=CCCCC4)ncnc32)cc1 | – | inactive: -3.72%
